Laboratory results reported in PubChem BioAssay AID2451 (National Center for Advancing Translational Sciences (NCATS), 2010).
Several values for one entry are separate records, joined by “and”; a condition that tells them apart may be missing. Equal values may be shown once. Screen size: about 290,000 compounds; about 2,100 (0.72%) were called active. The inconclusive results got no clear call from the source; some entries with a clear call stand among them for comparison. The call rests on the fitted dose curve; in most records, active means well fitted inhibition curve with a large enough effect; inconclusive means small, poorly fitted or top-dose-only effect, or effect the other way; inactive means flat fitted curve, though single readings scatter. Where the call is inconclusive, the potency comes from a doubtful curve fit.

biological target: Fructose-bisphosphate aldolase (Giardia intestinalis (strain ATCC 50803 / WB clone C6)) (UniProt A8B2U2); assay: qHTS Assay for Inhibitors of Fructose-1,6-bisphosphate Aldolase from Giardia Lamblia; details: purified Giardia FBPA; activity, negative = inhibition: at 59.6 µM (top of the series) unless noted; further: nearly all actives have a fitted effect of over 55% in size
Method in brief: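 Giardia FBPA (40 nM reagent) was preincubated 10 min at RT with compound (up to 57.5 uM final), then substrate plus GAPDH/TPI/NAD/arsenate coupling system with diaphorase/resazurin was added; resorufin fluorescence (525/598 nm) was read after 20 min.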
On the % scale 0 is the no-effect control and ±100 the full control effect; potency means the concentration at half of the fitted maximal effect; tags describe the fitted curve by direction and shape.

Sequence of UniProt A8B2U2 (A8B2U2 whole entry, looked up): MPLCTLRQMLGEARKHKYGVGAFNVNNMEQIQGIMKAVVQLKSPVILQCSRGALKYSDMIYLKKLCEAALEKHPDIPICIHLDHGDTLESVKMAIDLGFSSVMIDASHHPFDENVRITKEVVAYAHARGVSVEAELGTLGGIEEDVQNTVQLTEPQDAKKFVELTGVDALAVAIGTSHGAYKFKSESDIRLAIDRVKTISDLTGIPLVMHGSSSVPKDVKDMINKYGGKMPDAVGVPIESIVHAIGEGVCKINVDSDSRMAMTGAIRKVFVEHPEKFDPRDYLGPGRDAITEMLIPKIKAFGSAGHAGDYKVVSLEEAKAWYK

Q: Which Potency does the source give for `COc1cc(CN2CCC(C(=O)NCC(C)(C)CN(C)C)CC2)ccc1OCc1ccccc1` here?
A: The Potency was active: 22.4 µM.

Q: How did the “activity, negative = inhibition” value turn out when `C#CCN(CC=C)C(=O)CCc1nnc(COc2ccccc2)o1` was run?
A: Its value is inactive: 5.1%.

Q: For `CN(CCO)c1nc(N)c2c(N)nc3c(c2c1C#N)CC(=O)N3C1CCCC1`, which Potency is on record?
A: The Potency was inconclusive: 3.54 µM [inhibitor, full curve].

Q: With `CCCCCCCCCCCC1=C(O)C(=O)C=C(O)C1=O` as the compound, how does the Potency read?
A: The Potency was inconclusive: 25.1 µM [activator, partial curve].

Q: Which Potency does the source give for `O=C(NN1C(=O)CSC1=S)c1cccnc1` here?
A: Its Potency is active: 15.8 µM.

Q: With `C#CCOCCOCCOCCNc1nc(N2CCN(C(=O)[C@H]([C@@H](C)O)n3cc(CCCCN)nn3)CC2)nc(N2CCN(C(=O)[C@H]([C@@H](C)CC)n3cc(CCCN=C(N)N)nn3)CC2)n1` as the compound, how does the “activity, negative = inhibition” value read?
A: Its value is inactive: -1.55%.

Q: `CCN(CC)S(=O)(=O)c1ccc2c(c1)c(=O)c(C(=O)N1CCN(c3ccccn3)CC1)cn2C` was tested. Which “activity, negative = inhibition” value did it give?
A: The value was inactive: 22.5%.

Q: How did the “activity, negative = inhibition” value turn out when `COCCSc1nnc(NC(=O)C2CCCO2)s1` (stereo unspecified) was run?
A: The value was inactive: -2.34%.

Q: How did the “activity, negative = inhibition” value turn out when `O=C(Nc1cccc(F)c1)N1CC2(CCN(C(=O)c3cc(C(F)(F)F)cc(C(F)(F)F)c3)CC2)C1` was run?
A: Its value is inactive: -0.407%.

Q: For `COc1cccc(/C=C2/CN(C)CC3=C2OC(N)=C(C#N)C3c2cccc(OC)c2)c1` (stereo unspecified), which Potency is on record?
A: The Potency was inconclusive: 17.7 µM [inhibitor, single point].

Q: `O=C(Cc1ccc(N(CCCl)CCCl)cc1)NC(Cc1ccc(Cl)cc1)C(=O)O` (stereo unspecified) was tested. Which “activity, negative = inhibition” value did it give?
A: The value was inactive: 5.89%.

Q: For `c1ccc(-c2nc3c4ccccc4ccn3c2CN2CCOCC2)cc1`, which Potency is on record?
A: Its Potency is inconclusive: 31.5 µM [inhibitor, single point].

Q: How did the Potency turn out when `O=C1NC(=S)S/C1=C/c1ccc(N2CCOCC2)o1` was run?
A: Its Potency is inconclusive: 3.97 µM [inhibitor, full curve].

Q: `Oc1ccc(N2CCN(Cc3ccc(OCCCN4CCCCC4)cc3)CC2)cc1` was tested. Which Potency did it give?
A: Its Potency is inconclusive: 14.1 µM [inhibitor, partial curve].

Q: `COc1ccc(/C=N\NC(=O)c2ccccc2)cc1COc1ccc(F)cc1` was tested. Which “activity, negative = inhibition” value did it give?
A: The value was inactive: 12.9%.

Q: For `COc1cc2c(cc1NCc1ccccn1)oc1ccccc12`, which Potency is on record?
A: The Potency was inconclusive: 19.9 µM [inhibitor, single point].

Q: With `C=CCOc1c(Br)cc(CNc2ccc(NC(=O)C(C)C)c(OC)c2)cc1OCC` as the compound, how does the Potency read?
A: The Potency was active: 8.89 µM.

Q: Which Potency does the source give for `COC(=O)CCC(=O)OC1(C)C(=O)C=C2C=C(C3CC3)N(C3CCCC3)C=C2C1=O` (stereo unspecified) here?
A: Its Potency is inconclusive: 126 nM [inhibitor, full curve] and inconclusive: 561 nM [inhibitor, full curve].

Q: With `CC(C)(C)c1ccc(/C=N/Nc2nncn2N)cc1` as the compound, how does the Potency read?
A: Its Potency is active: 15.8 µM.

Q: Which Potency does the source give for `O=C1CCc2ccc(OCCCCN3CCN(c4cccc(Cl)c4Cl)CC3)cc2N1` here?
A: The Potency was “inactive”.

Q: With `O=C(N/N=C/C=C/c1cccc([N+](=O)[O-])c1)c1ccncc1` as the compound, how does the Potency read?
A: The Potency was active: 15.8 µM.

Q: `CN1CCc2cc3c(c4c2C1Cc1ccccc1-4)OCO3` (stereo unspecified) was tested. Which Potency did it give?
A: Its Potency is inconclusive: 0.251 µM [inhibitor, full curve].

Q: With `Cc1cc(C)c2[nH]c(O)c(N=NC(=S)NCC3CCCO3)c2c1` (stereo unspecified) as the compound, how does the “activity, negative = inhibition” value read?
A: The value was inactive: -6.08%.

Q: How did the Potency turn out when `c1ccc(Oc2nc(NC3CCCCC3)c3[nH]cnc3n2)cc1` was run?
A: The Potency was active: 15.8 µM.

Q: Which Potency does the source give for `COc1cc(/C=C2\COC/C(=C\c3ccc(O)c(OC)c3)C2=O)ccc1O` here?
A: Its Potency is inconclusive: 15.8 µM [inhibitor, single point].

Q: For `COc1ccc(N=NC2C(=O)N(c3ccccc3)N=C2C)cc1` (stereo unspecified), which Potency is on record?
A: Its Potency is active: 28.2 µM.

Q: With `CNCc1ccccc1Sc1ccc(O)c(O)c1` as the compound, how does the Potency read?
A: Its Potency is active: 2.51 µM.

Q: With `CCOCCCN(Cc1ccco1)S(=O)(=O)c1csc(C(N)=O)c1` as the compound, how does the “activity, negative = inhibition” value read?
A: The value was inactive: 1.54%.

Q: With `C=C(C)Cn1c(-c2cccs2)n[nH]c1=S` as the compound, how does the Potency read?
A: The Potency was inconclusive: 6.29 µM [inhibitor, partial curve].

Q: `Cc1ccc(C2c3c(oc4cc(C)c(C)cc4c3=O)C(=O)N2CCCN2CCOCC2)cc1` (stereo unspecified) was tested. Which “activity, negative = inhibition” value did it give?
A: The value was inactive: -2.35%.

Q: `O=c1[nH]c(=O)c2nnc(N/N=C\c3ccc(O)cc3)nc2[nH]1` was tested. Which Potency did it give?
A: Its Potency is inconclusive: 19.9 µM [inhibitor, partial curve].

Q: How did the Potency turn out when `COc1ccc(CN(C)CC(=O)Nc2ccc(Cl)cc2C(F)(F)F)c(OC)c1` was run?
A: The Potency was inconclusive: 19.9 µM [inhibitor, partial curve].

Q: For `COc1ccc(NC(=O)c2ccccc2NC(=O)COc2ccccc2)cc1`, which “activity, negative = inhibition” value is on record?
A: The value was inactive: -0.905%.

Q: For `CC(C)C(=O)O/N=C(\N)c1ccccn1`, which “activity, negative = inhibition” value is on record?
A: The value was inactive: 0.0212%.

Q: How did the Potency turn out when `COC(=O)Cc1cc(=O)n2[nH]c(C)cc2n1` was run?
A: The Potency was inconclusive: 17.7 µM [inhibitor, single point].

Q: Which Potency does the source give for `CNC(=O)c1sc2nc(-c3ccc(OC)cc3)cn2c1C` here?
A: Its Potency is inconclusive: 11.2 µM [inhibitor, partial curve].

Q: For `COCCNC(=O)c1ccc(C2SCC(=O)N2Cc2ccco2)cc1` (stereo unspecified), which “activity, negative = inhibition” value is on record?
A: The value was inactive: -4.88%.

Q: With `Cc1cnc(NC(=O)C(C)N2CCN(C)CC2)s1` (stereo unspecified) as the compound, how does the Potency read?
A: Its Potency is inconclusive: 15.8 µM [inhibitor, partial curve].

Q: With `CCOc1ccccc1C(C(=O)NC1CCCC1)N(Cc1ccco1)C(=O)CNC(=O)c1ccco1` (stereo unspecified) as the compound, how does the “activity, negative = inhibition” value read?
A: Its value is inactive: 7.22%.

Q: With `CCCN(CCC)CCNC(=O)C1CC(=O)N(c2ccc(OC)cc2)C1c1ccc(OC)cc1` (stereo unspecified) as the compound, how does the “activity, negative = inhibition” value read?
A: The value was inactive: 0.611%.

Q: With `C/C(=N\N=C1\NC(=O)C(CC(=O)NCc2ccccc2)S1)C(C)C` (stereo unspecified) as the compound, how does the “activity, negative = inhibition” value read?
A: The value was inactive: 0.984%.

Q: How did the “activity, negative = inhibition” value turn out when `O=C(C[n+]1cccc(Br)c1)c1ccccc1` was run?
A: The value was inactive: -0.548%.

Q: How did the “activity, negative = inhibition” value turn out when `Cc1nn(-c2cc(N3CCOCC3)ccc2[N+](=O)[O-])c(=O)c2ccccc12` was run?
A: The value was inactive: -0.226%.

Q: `CSc1ccc(CN2CCCN(C)CC2)cc1` was tested. Which Potency did it give?
A: Its Potency is inconclusive: 7.94 µM [inhibitor, partial curve].

Q: `Cc1cccc(/C=N/NC(=O)c2ccc(NC(=O)c3cccc(Cl)c3)cc2)n1` was tested. Which “activity, negative = inhibition” value did it give?
A: Its value is inactive: -5.83%.

Q: `O=C1NCC(O)=C1C=Nc1ccccc1O` was tested. Which “activity, negative = inhibition” value did it give?
A: The value was inactive: 5%.

Q: How did the Potency turn out when `CCC12CCCN3CCc4c(n(c5ccccc45)C(O)(C(=O)OC)C1)C32` (stereo unspecified) was run?
A: Its Potency is inconclusive: 7.06 µM [inhibitor, partial curve].

Q: Which Potency does the source give for `COc1ccc(CCNCc2ccc(Br)cc2)cc1OC` here?
A: Its Potency is inconclusive: 15.8 µM [inhibitor, partial curve].

Q: For `COc1ccc(/C=N/Nc2cc(=O)n(C)c(=O)n2C)cc1OC`, which Potency is on record?
A: Its Potency is inconclusive: 12.6 µM [inhibitor, partial curve].

Q: With `Cc1ccc2c(COC(=O)c3ccccc3Cl)cc(=O)oc2c1` as the compound, how does the “activity, negative = inhibition” value read?
A: Its value is inactive: 2.12%.

Q: Which “activity, negative = inhibition” value does the source give for `COc1cccc(CNC(=O)[C@H](CCSC)NC(=O)N2CCn3c2nc2ccccc23)c1` here?
A: The value was inactive: -9.7%.
